Like-named read-outs stand apart in the source and are kept apart here.
Tests used:
human mesothelin (MSLN) [1] = molecular target: T1, human mesothelin (MSLN) (human, UniProt Q13421 296-598); assay: cell-based or functional assay
human mesothelin (MSLN) [2] = molecular target: T1, human mesothelin (MSLN); assay: cell-based or functional assay; remark: listed apart in the source
[3] = molecular target: T2, human CD3 epsilon chain (CD3ε) (human, UniProt P07766); assay: FACS on isolated human T cells; FITC anti-human light chain secondary
T2 construct: also called CD3ε on human T cells; human CD3ε
Method: The heterodimeric bispecific antibodies described in Example 1 were produced in HEK 293 cells and were assayed by fluorescence activated cell sorting (FACS) for binding to T cells, which express CD3ε, and to a human ovarian cancer cell line, Ovcar-8, which expresses mesothelin. Briefly, the heterodimeric bispecific antibodies were incubated with about 50,000 Ovcar-8 cells or isolated human or cynomolgus monkey T cells at 4° C. for one hour. The cells were then washed and stained with a fluorescein isothiocyanate (FITC)-conjugated anti-human light chain secondary antibody and analyzed by flow cytometry. The relative binding was represented by the geometric mean of fluorescence intensity.

T1 sequence (Q13421 other isoform, or with tags, fused parts or gaps limits assumed): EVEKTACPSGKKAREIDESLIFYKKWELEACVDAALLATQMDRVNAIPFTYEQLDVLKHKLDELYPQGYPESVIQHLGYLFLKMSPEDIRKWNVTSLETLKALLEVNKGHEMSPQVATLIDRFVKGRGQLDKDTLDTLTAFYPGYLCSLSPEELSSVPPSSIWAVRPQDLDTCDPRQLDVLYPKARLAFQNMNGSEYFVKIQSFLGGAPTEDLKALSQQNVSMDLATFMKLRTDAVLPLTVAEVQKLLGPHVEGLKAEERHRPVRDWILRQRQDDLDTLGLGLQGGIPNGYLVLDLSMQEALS
T2 sequence (P07766 22-207 limits assumed): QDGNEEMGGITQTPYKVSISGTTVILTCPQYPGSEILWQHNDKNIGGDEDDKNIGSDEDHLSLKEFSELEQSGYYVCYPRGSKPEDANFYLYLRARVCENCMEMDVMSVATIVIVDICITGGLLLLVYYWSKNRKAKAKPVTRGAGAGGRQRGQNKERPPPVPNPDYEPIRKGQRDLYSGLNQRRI

Human TDCC EC50 (pM), Ovcar-8 target cells with human T cells (human mesothelin (MSLN) [1]): 0.12 pM
Human TDCC EC50 (pM), Ovcar-8 target cells with human T cells (human mesothelin (MSLN) [2]): 0.12 pM
FACS binding (geometric mean) [3]: 220 geometric mean of fluorescence intensity
B1: […].5 (anti-MSLN/CD3ε heterodimeric bispecific antibody) (bispecific antibody)
chain 1: [no letters for about 120 residues]ASTKGPQVQLQESGPGLVKPSETLSLTCTVSGGSIISHYWSWIRQPPGKGLEWIGYIYYSGSTNYNPSLKSRVTISVDTSKNQFSLKLTSVTAADTAVYYCARDGWSAFDYWGQGTLVTVSSASTKGPSVFPLAPCSRSTSESTAALGCLVKDYFPEPVTVSWNSGALTSGVHTFPAVLQSSGLYSLSSVVTVPSSNFGTQTYTCNVDHKPSNTKVDKTVGGGGSAAAVPRDLEVVAATPTSLLISWDAPHHGVAYYRITYGETGGNSPVQEFTVPGSKSTATISGLKPGVDYTINVYAVLAYPRGYPLSKPISINYRTDYKDDDDKGSSHHHHHH
chain 2: not shown
notes: second chain: two variable regions, CL

Reference: patent publication US20160115241A1 (Amgen, published 2016)
